Measurements published in PubChem BioAssay AID624296 (National Center for Advancing Translational Sciences (NCATS), 2012).
Several values for one entry are separate records, joined by “and”; a condition that tells them apart may be missing. Equal values may be shown once. About 9,900 (2.8%) of roughly 350,000 compounds were called active. This list was built around the results that the source calls inconclusive (neither active nor inactive); the mix of calls is not that of the screen. Calls follow the shape of the dose curve; as a rule, active = well fitted activation curve with a large enough effect; inconclusive = small, poorly fitted or top-dose-only effect; inactive = no such curve, though single readings can be large or run the other way. A potency beside an inconclusive call is a rough fit, not a confirmed value.

test: A quantitative high throughput screen for small molecules that induce DNA re-replication in MCF 10a normal breast cells.; also: nearly all actives have a fitted effect of over 50% in size; settings: MCF 10A DNA re-replication, Hoechst nuclear intensity, 48 h; series mostly up to 46.1 µM
Potency is read from the fitted curve at half-maximal effect; tags tell the direction and shape of the fitted curve.

SMILES | Potency
C=CCNC(=O)COC(=O)c1oc2ccccc2c1CSC1CCCCC1 | inconclusive: 29.1 µM [activator, single point]
COC(CN(C)C(=O)c1cn(C)c2ccc(S(=O)(=O)N(C)C3CCCCC3)cc2c1=O)OC | inconclusive: 20.6 µM [activator, single point]
O=C(CCNC(=O)c1ccc(Cl)cc1)NC1CCCCCC1 | inconclusive: 18.4 µM [activator, single point]
CC1CN(C(=O)CSc2nc(-c3ccccc3)cs2)CC(C)O1 (stereo not given) | inconclusive: 4.61 µM [activator, partial curve, poor fit]
COc1ccccc1NS(=O)(=O)c1cccc(NC(=O)Nc2cccc(Cl)c2)c1 | inconclusive: 20.6 µM [activator, single point]
N#CCCN1CCCN(CCC#N)CCN(CCC#N)CCCN(CCC#N)CC1 | inactive
O=C(O)c1ccccc1C=NNc1ccccn1 | inactive
COc1ccc(N(C(=O)c2ccncc2)S(=O)(=O)c2ccc(Cl)cc2)cc1 | inactive
CCCN(CC1CC1)C(=S)Nc1ccc(C(C)=O)cc1 | inactive
O=C1CCCN2N=C(SCC(=O)Nc3ccc([N+](=O)[O-])cc3)SC2=N1 | active: 5.17 µM
COc1cc(OC)cc(C(=O)Nc2nc(CC(=O)NCc3ccccc3OC)cs2)c1 | inconclusive: 29.1 µM [activator, single point]
CCOc1ccc(S(=O)(=O)N2CCN(C(=O)c3sccc3C)CC2)cc1 | inactive
O=C(NC(=S)Nc1ccc2oc(=O)ccc2c1)c1ccco1 | inactive
OCCn1c(-c2ccc(F)cc2)csc1=Nc1ccccc1 | inconclusive: 25.9 µM [activator, partial curve, poor fit]
Cc1cc(C)n2c(=O)[nH]nc2c1 | inactive
COc1ccc(C(=O)N(Cc2ccco2)Cc2cccs2)c(O)c1 | inactive
Cc1cccc(C)c1OCC(=O)Nc1cccc(NC(=O)c2ccco2)c1 | inconclusive: 20.6 µM [activator, partial curve, poor fit]
COc1ccc(C(=O)NC(=S)Nc2cccc3ncccc23)cc1[N+](=O)[O-] | inconclusive: 32.6 µM [activator, partial curve, poor fit]
COC(=O)CCC(=O)N1CCCC(N2CCN(c3cccc(C(F)(F)F)c3)CC2)C1 (stereo not given) | inconclusive: 6.51 µM [activator, partial curve, poor fit]
O=C(NN=C1CCCCCC1)c1cn(-c2ccccc2)nc1-c1ccccc1 | inconclusive: 29.1 µM [activator, single point]
CCOC(=O)c1cnc(SCC(=O)Nc2ccc(N3CCOCC3)c(Cl)c2)nc1N | inactive
O=C(CSc1nc2ccccc2o1)N1N=C(c2cccs2)CC1c1ccc(F)cc1 (stereo not given) | inactive
Cn1ccc(C(=O)OCC(=O)Nc2ccccc2)n1 | inconclusive: 0.0041 µM [activator, full curve, poor fit]
O=C(NC1CCCC1)C(c1ccsc1)N(Cc1ccccc1)C(=O)Cc1cccs1 (stereo not given) | inactive

SMILES | Potency
Cc1cc(C)nc(N2CCC(C(=O)Nc3ccc(Oc4ccccc4)cc3)CC2)n1 | inconclusive: 5.17 µM [activator, single point]
COc1ccc(NC(=S)N=Nc2c(O)[nH]c3ccccc23)cc1 | inactive
C[C@H]1CN([C@@H](C)CO)C(=O)c2cccc(NC(=O)Nc3ccc(C(F)(F)F)cc3)c2O[C@@H]1CN(C)Cc1ccc(Cl)c(Cl)c1 | inconclusive: 20.6 µM [activator, partial curve, poor fit]
CCOc1cc(/C=C/C(=O)c2ccc3c(c2)OCCO3)ccc1OCC(=O)N(C)C | inconclusive: 20.6 µM [activator, single point]
CC1CC(C)CN(S(=O)(=O)c2ccc(C(=O)N(c3ccccn3)C3CCCCC3)cc2)C1 (stereo not given) | inactive
Nc1nonc1-n1nnc(C(=O)N/N=C/c2cccc(Cl)c2Cl)c1CN1CCCC1 | inconclusive: 29.1 µM [activator, single point]
O=C(CN1CCN(S(=O)(=O)c2ccc3ccccc3c2)CC1)Nc1ccc(N2CCOCC2)cc1 | inactive
CN(C)CCCN1c2ccccc2Sc2ccc(Cl)cc21 | inconclusive: 164 nM [activator, full curve, poor fit] and inconclusive: 29.1 µM [activator, single point]
CCN(C[C@H]1N[C@@](C)(C(=O)OC)[C@H]2C(=O)N(Cc3ccccc3)C(=O)[C@@H]12)S(=O)(=O)c1ccc(F)cc1 | inconclusive: 0.92 µM [activator, full curve, poor fit]
CC1(C)CC(=O)C2=C(C1)OC(N)=C(C#N)C2c1cn(-c2ccccc2)nc1-c1ccc(F)cc1 (stereo not given) | inconclusive: 20.6 µM [activator, single point]
Cc1cccc(N=N/C(=C\O)C(=O)c2cccs2)c1 | inconclusive: 6.51 µM [activator, single point]
CCOC(=O)c1ccc(NC(=O)Nc2ccon2)cc1 | active: 1.3 µM
CCCCC(=O)Nc1ccc2c3c(cccc13)CC2 | inconclusive: 29.1 µM [activator, single point]
CC(C)CC(=O)NS(=O)(=O)c1ccc(NS(C)(=O)=O)cc1 | inactive
COc1cc(C(=O)Oc2ccccc2/C=N/NC(=O)c2ccc(C)cc2)cc(OC)c1OC | inconclusive: 14.6 µM [activator, single point]
COc1ccc(NC(=O)COC(=O)CC23CC4CC(CC(C4)C2)C3)c([N+](=O)[O-])c1 | inconclusive: 29.1 µM [activator, partial curve, poor fit]
CC(/C=N/NC(=O)Cn1cnc2c1c(=O)n(C)c(=O)n2C)=C\c1ccco1 | inactive
CC(=O)c1cccc(NC(=O)CN2C(=O)COc3ccc(S(=O)(=O)N4CCOCC4)cc32)c1 | inconclusive: 25.9 µM [activator, single point]
Oc1ccc2cc(Br)ccc2c1CN1CCCC1 | inconclusive: 29.1 µM [activator, single point]
COc1ccccc1-c1nc2c3ccccc3nc(=S)n2[nH]1 | inactive
Cc1ccc2oc(C(=O)NCC(c3ccco3)N3CCCC3)c(C)c2c1 (stereo not given) | inconclusive: 6.51 µM [activator, partial curve, poor fit]
CCOC(=O)C1=C(N)Oc2cc(O)ccc2C1c1ccc(Br)cc1 (stereo not given) | inconclusive: 29.1 µM [activator, single point]
Cc1ccccc1/C=c1\s/c(=C\C(=O)C(C)(C)C)[nH]c1=O | active: 16.4 µM
CC(C)[C@H](NC(=O)c1ccccc1)C(=O)OCC(=O)Nc1sccc1C(N)=O | inactive

SMILES | Potency
Nc1nc(SCc2ccc(Br)cc2)[nH]c(=O)c1-c1ccccc1 | inactive
C=C(Cl)COc1ccc2c(CC)cc(=O)oc2c1 | inconclusive: 18.4 µM [activator, single point]
CSc1nc2c(cnn2-c2ccc(C)c(C)c2)c(=O)[nH]1 | inactive
CCC1=C([N+](=O)[O-])C(c2ccc3c(c2)OCO3)NC(=O)N1 (stereo not given) | inconclusive: 6.51 µM [activator, partial curve, poor fit]
CN1CCN(c2oc(-c3ccccc3F)nc2S(=O)(=O)c2ccc(Cl)cc2)CC1 | inconclusive: 20.6 µM [activator, partial curve, poor fit]
COc1ccccc1C(=O)NCCC(=O)N1CCN(c2cccc(C(F)(F)F)c2)CC1 | inactive
COc1ccc(NC(=O)N2CCC(C(=O)c3ccc4c(c3)OCCO4)CC2)cc1 | inconclusive: 7.31 µM [activator, partial curve, poor fit]
Cc1onc(-c2ccccc2Cl)c1C(=O)Nc1cccc(-c2cn3cccnc3n2)c1 | inconclusive: 20.6 µM [activator, single point]
O=S(=O)(NCc1ccc(F)cc1)c1ccc(-n2cnnn2)cc1 | inactive
O=C(N/N=C/c1ccc(Cl)cc1)c1sccc1OCc1ccc(F)cc1 | active: 1.64 µM
N#CC1=C(Nc2ccccc2)SC=C(c2ccc(Cl)c(Cl)c2)N=C1N1CCOCC1 | active: 16.4 µM
Cn1c(N)c(C(=O)COC(=O)/C=C/c2ccc(Cl)cc2Cl)c(=O)n(C)c1=O | inactive
CCN(CC)CC(C)(C)NS(=O)(=O)c1ccc(Cl)cc1 | inactive
CC(C(=O)O)n1c2ccccc2c2cnn(C)c(=O)c21 (stereo not given) | inactive
COc1ccccc1C(=O)Nc1ccccc1SC(=O)c1ccccc1OC | active: 20.6 µM
Cn1c(=O)c2c(nc(NCCNC(=O)c3ccco3)n2Cc2ccccc2F)n(C)c1=O | inconclusive: 10.3 µM [activator, partial curve, poor fit]
O=C(Nc1ccccn1)C1CCCN1S(=O)(=O)c1ccc(Cl)cc1 (stereo not given) | inconclusive: 1.84 µM [activator, partial curve, poor fit]
CC(C)c1ccc(NC(=S)Nc2ccc(OC(F)(F)F)cc2)cc1 | inactive
COC(=O)c1cn(C(=O)c2ccc(C)cc2C)c2ccccc12 | active: 4.61 µM
O=C(Nc1ccc2c(c1)OCO2)c1ccc2c(c1)S(=O)(=O)c1ccccc1C2=O | inconclusive: 7.31 µM [activator, partial curve, poor fit]
Cc1ccc(-c2noc(CCC(=O)NCCCN3CCN(c4cccc(Cl)c4)CC3)n2)cc1 | inconclusive: 29.1 µM [activator, single point]
CC(=O)OCC1=C(C(=O)O)N2C(=O)C(NC(=O)Cn3nc(C(F)F)c(Cl)c3C)C2SC1 (stereo not given) | inconclusive: 20.6 µM [activator, single point]
